Laboratory results from the supplement of paper PMC4604168 (melanoma cell lines).
Some of the results follow. Most values come without repeats; read them as rough.
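Further: cell number obtained by counting DAPI-stained nuclei in high-throughput microscope images with image analysis software, screen run in 1,536-well plates.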

What follows are compounds tested on UACC257 (assay: cell count relative to DMSO control; melanoma cells; higher = more viable cells). Details: library dose: low library concentration; 72 h.
Compound `Nc1ccn([C@@H]2O[C@H](CO)[C@@H](O)C2(F)F)c(=O)n1` [gemcitabine] + O=C(CCCCCCC(=O)Nc1ccccc1)NO [vorinostat] (first compound 0.0004 µM, partner dose 0.08 µM) has a cell count of 95.8%. `Nc1nc(F)nc2c1ncn2[C@@H]1O[C@H](CO)[C@@H](O)[C@@H]1O` [fludarabine] + Oc1nc(-c2ccc(C(F)(F)F)cc2)nc2c1CSCC2 [XAV939] (first compound 0.2 µM, partner dose 2 µM) showed a cell count of 90.6%. `Nc1ccn([C@@H]2O[C@H](CO)[C@@H](O)C2(F)F)c(=O)n1` [gemcitabine] + O=C(Nc1ccccc1)c1cc([N+](=O)[O-])ccc1Cl [GW9662] (first compound 0.0004 µM, partner dose 2 µM) showed a cell count of 96.6%. For `CO[C@H]1C[C@@H]2CC[C@@H](C)[C@@](O)(O2)C(=O)C(=O)N2CCCC[C@H]2C(=O)O[C@H]([C@H](C)C[C@@H]2CC[C@@H](OCCO)[C@H](OC)C2)CC(=O)[C@H](C)/C=C(\C)[C@@H](O)[C@@H](OC)C(=O)[C@H](C)C[C@H](C)/C=C/C=C/C=C/1C` [everolimus] + CN(C)S(=O)(=O)c1ccc2c(c1)/C(=C/c1cc3c([nH]1)CCCC3)C(=O)N2 [SU6656] (first compound 0.02 µM, partner dose 0.4 µM), the cell count was 71.7%. For `Nc1ccn([C@@H]2O[C@H](CO)[C@@H](O)C2(F)F)c(=O)n1` [gemcitabine] + Cn1cc(/C=C2\C(=O)Nc3cccnc32)c2ccccc21 [GW441756] (first compound 0.0004 µM, partner dose 0.4 µM), the cell count was 107%. In the case of `CO[C@H]1C[C@@H]2CC[C@@H](C)[C@@](O)(O2)C(=O)C(=O)N2CCCC[C@H]2C(=O)O[C@H]([C@H](C)C[C@@H]2CC[C@@H](OCCO)[C@H](OC)C2)CC(=O)[C@H](C)/C=C(\C)[C@@H](O)[C@@H](OC)C(=O)[C@H](C)C[C@H](C)/C=C/C=C/C=C/1C` [everolimus] + OCCn1cc(-c2cnc3nnn(Cc4ccc5ncccc5c4)c3n2)cn1 [PF04217903] (first compound 0.02 µM, partner dose 1 µM), the cell count is reported as 76.3%. `CC(=O)O[C@@]12CO[C@@H]1C[C@H](O)[C@@]1(C)C(=O)[C@H](O)C3=C(C)[C@@H](OC(=O)[C@H](O)[C@@H](NC(=O)OC(C)(C)C)c4ccccc4)C[C@@](O)([C@@H](OC(=O)c4ccccc4)[C@H]21)C3(C)C` [Docetaxel] + Cc1cc([N+](=O)[O-])ccc1NS(=O)(=O)c1cc(Cl)ccc1Cl [FH535] (first compound 0.0001 µM, partner dose 1 µM) was tested, and the cell count was 43.5%. `CC(=O)c1c(C)c2cnc(Nc3ccc(N4CCNCC4)cn3)nc2n(C2CCCC2)c1=O` [palbociclib] + O=S(=O)(c1ccccc1)N(CC(F)(F)F)c1ccc(C(O)(C(F)(F)F)C(F)(F)F)cc1 [T0901317] (first compound 0.04 µM, partner dose 1.4 µM) was tested, and the cell count was 63.1%. `Nc1ncn([C@H]2C[C@H](O)[C@@H](CO)O2)c(=O)n1` [decitabine] + Cn1cncc1[C@@](N)(c1ccc(Cl)cc1)c1ccc2c(c1)c(-c1cccc(Cl)c1)cc(=O)n2C [tipifarnib] (first compound 0.1 µM, partner dose 0.01 µM) showed a cell count of 62.5%. In the case of `CC(=O)O[C@@]12CO[C@@H]1C[C@H](O)[C@@]1(C)C(=O)[C@H](O)C3=C(C)[C@@H](OC(=O)[C@H](O)[C@@H](NC(=O)OC(C)(C)C)c4ccccc4)C[C@@](O)([C@@H](OC(=O)c4ccccc4)[C@H]21)C3(C)C` [Docetaxel] + COc1cc2ncnc(Nc3ccc(Oc4ccccc4)cc3)c2cc1OC [SrcI1] (first compound 0.0001 µM, partner dose 2 µM), the cell count is reported as 52.1%. For `CO[C@H]1C[C@@H]2CC[C@@H](C)[C@@](O)(O2)C(=O)C(=O)N2CCCC[C@H]2C(=O)O[C@H]([C@H](C)C[C@@H]2CC[C@@H](OCCO)[C@H](OC)C2)CC(=O)[C@H](C)/C=C(\C)[C@@H](O)[C@@H](OC)C(=O)[C@H](C)C[C@H](C)/C=C/C=C/C=C/1C` [everolimus] + CC(C)CCN1c2nc(Nc3cc(F)c(O)c(F)c3)ncc2N(C)C(=O)C1C [BID1870] (first compound 0.02 µM, partner dose 0.2 µM), the cell count was 75.3%.
